Holding throughout (test): Viability of human cancer cell lines after 72 h of drug (GDSC screen)
Compound in one experiment: O=c1cc(-c2cccc3c2Sc2ccccc2S3)oc(N2CCOCC2)c1 [KU-55933]
The settings on record: top dose 10 µM. As for the experimental part:
(§1)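 Human cancer cell lines in 384-well plates, medium with 10% serum, drug for 72 h over a 256-fold dose range (nine 2-fold or five 4-fold steps up to the top dose). Adherent lines were fixed and stained with the nucleic acid dye Syto60, suspension lines read with resazurin; signal relative to control wells, capped at 0 and 100%. One two-parameter sigmoid per drug and line, fitted in a mixed model over all curves with the slope shared within a line.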

Compound in a further experiment: Cc1ccc(F)c(NC(=O)Nc2ccc(-c3cccc4[nH]nc(N)c34)cc2)c1 [ABT-869]
The settings on record: top dose 1.024 µM; top dose inferred. As to the method: as §1

Compound in the next experiment: COc1cc2ncnc(-n3nc(-c4ccccn4)nc3N)c2cc1OC [CP466722]
The note with it: top dose 16 µM; top dose inferred. As to the method: as §1

Compound in the next experiment: C=CC(=O)Nc1cc(-n2c(=O)ccc3cnc4ccc(-c5cn[nH]c5)cc4c32)ccc1C [QL-X-138]
The note with it: top dose 10.24 µM; top dose inferred. As to the method: as §1

Compound in the next experiment: Cc1cnc(-c2cnc(NCCNc3ccc(C#N)cn3)nc2-c2ccc(Cl)cc2Cl)[nH]1 [CHIR-99021]
As for the experimental part: as §1

Compound in another experiment: COc1cc(N2CCC(O)CC2)ccc1Nc1cc(Nc2ccccc2S(=O)(=O)C(C)C)c2cc[nH]c2n1 [MPS-1-IN-1]
The settings on record: top dose 20 µM; top dose inferred. As for the experimental part:
as §1

Compound in the next experiment: COc1cc(O)c2c(c1)/C=C/C[C@H](O)[C@H](O)C(=O)/C=C\C[C@H](C)OC2=O [(5Z)-7-Oxozeaenol]
The settings on record: top dose 10 µM; top dose inferred. As for the experimental part: as §1

Compound in a further experiment: C/C=C(/C)C(=O)O[C@H]1C(C)=C2[C@H]([C@@H]1OC(=O)CCCCCCC)[C@@](C)(OC(C)=O)C[C@H](OC(=O)CCC)[C@@]1(O)[C@H]2OC(=O)[C@@]1(C)O [Thapsigargin]
The note with it: top dose 0.512 µM; top dose inferred. As for the experimental part: as §1

Compound in another experiment: CCn1c(-c2nonc2N)nc2cnc(Oc3cccc(NC(=O)c4ccc(OCCN5CCOCC5)cc4)c3)cc21 [GSK269962A]
The settings on record: top dose 5 µM; screen: GDSC drug entry 1192; top dose inferred. As to the method: as §1

Compound in a further experiment: COc1nc(C)cnc1NS(=O)(=O)c1cccnc1-c1ccc(-c2nnco2)cc1 [Zibotentan]
The settings on record: top dose 20 µM; top dose inferred. As to the method:
as §1

Compound in the next experiment: C[C@]1(c2nc3c(C(N)=O)cccc3[nH]2)CCCN1 [ABT-888]
The settings on record: top dose 5 µM; top dose inferred. As for the experimental part: as §1

Where [1] appears, read: top dose 2.56 µM, screen: GDSC drug entry 154.
Where [2] appears, read: top dose 10 µM, screen: GDSC drug entry 1241, top dose inferred.

By IC50 is meant the dose at which the fit gives 50% viability; a fit beyond the top or the lowest dose is shown as a bound at that dose. AUC sums up the same curve from the lowest dose to the 256-fold higher top dose; the more sensitive the line, the further below 1. For part of these data: Any top dose called inferred comes from the curve model; the source does not state it. For part of these data: Drugs with an entry number were screened twice under separate entries, and the two screens often disagree.

The IC50 is the midpoint of a concentration-inhibition curve.

On to MOG-G-UVW (glioma, adherent), for which the AUC stood at 0.92 with KU-55933; 0.986 in the experiment with ABT-869; 0.762 in the experiment with CP466722; 0.736 with QL-X-138; 0.948 in the experiment with CHIR-99021 (setting [1]); 0.9 in the experiment with CHIR-99021 (setting [2]). The AUC is 0.948 with MPS-1-IN-1; 0.557 with (5Z)-7-Oxozeaenol; 0.267 in the experiment with Thapsigargin; 0.746 with GSK269962A; 0.987 with Zibotentan; 0.976 with ABT-888. Also, the IC50 was over 10 µM with KU-55933; over 1020 nM with ABT-869; 5.59 µM with CP466722; 2.96 µM with QL-X-138; over 2.56 µM with CHIR-99021 (setting [1]); over 10 µM with CHIR-99021 (setting [2]). Further, the IC50 in the experiment with MPS-1-IN-1 is over 20 µM; with (5Z)-7-Oxozeaenol it was 0.892 µM; in the experiment with Thapsigargin, 7.07 nM; with GSK269962A, 1.55 µM; in the experiment with Zibotentan, over 20 µM; with ABT-888, over 5 µM.

As to “NCI-H460 (large cell lung carcinoma, adherent)”, the AUC amounted to 0.983 in the experiment with KU-55933; 0.989 with ABT-869; 0.989 with CP466722; 0.987 with QL-X-138; 0.986 with CHIR-99021 (setting [1]); 0.952 with CHIR-99021 (setting [2]). Also, the AUC with MPS-1-IN-1 was 0.923; with (5Z)-7-Oxozeaenol, 0.848; with Thapsigargin it was 0.244; with GSK269962A, 0.878; with Zibotentan it was 0.99; with ABT-888, 0.989. In addition, the concentration for half-maximal inhibition (IC50) with KU-55933 is over 10 µM; with ABT-869, over 1020 nM; with CP466722, over 16 µM; in the experiment with QL-X-138, over 10.2 µM; with CHIR-99021 (setting [1]), over 2.56 µM; with CHIR-99021 (setting [2]), over 10 µM. The IC50 is over 20 µM in the experiment with MPS-1-IN-1; 6.36 µM with (5Z)-7-Oxozeaenol; 6.4 nM with Thapsigargin; 4.24 µM with GSK269962A; over 20 µM with Zibotentan; over 5 µM in the experiment with ABT-888.

Turning to “NCI-H1437 (lung adenocarcinoma, adherent)”, the AUC is 0.927 in the experiment with KU-55933; 0.984 with ABT-869; 0.772 with CP466722; 0.614 in the experiment with QL-X-138; 0.982 in the experiment with CHIR-99021 (setting [1]); 0.968 with CHIR-99021 (setting [2]). The AUC with MPS-1-IN-1 is 0.911; with (5Z)-7-Oxozeaenol it was 0.747; in the experiment with Thapsigargin, 0.269; in the experiment with GSK269962A, 0.985; in the experiment with Zibotentan it was 0.986; with ABT-888, 0.983. The half-inhibitory concentration (IC50) is over 10 µM with KU-55933; over 1020 nM with ABT-869; 6.42 µM with CP466722; 1.34 µM with QL-X-138; over 2.56 µM with CHIR-99021 (setting [1]); over 10 µM with CHIR-99021 (setting [2]). The IC50 with MPS-1-IN-1 was over 20 µM; with (5Z)-7-Oxozeaenol it was 3.3 µM; in the experiment with Thapsigargin, 6.81 nM; with GSK269962A, over 5 µM; with Zibotentan, over 20 µM; with ABT-888, over 5 µM.

On to “NCI-H2023 (lung adenocarcinoma, adherent)”, for which the AUC with KU-55933 is 0.925; with ABT-869, 0.981; with CP466722 it was 0.917; in the experiment with QL-X-138 it was 0.932; in the experiment with CHIR-99021 (setting [1]), 0.982; in the experiment with CHIR-99021 (setting [2]) it was 0.958. The AUC was found to be 0.979 with MPS-1-IN-1; 0.876 with (5Z)-7-Oxozeaenol; 0.856 with Thapsigargin; 0.909 with GSK269962A; 0.981 with Zibotentan; 0.928 with ABT-888. In addition, the half-maximal inhibitory concentration (IC50) with KU-55933 is over 10 µM; with ABT-869 it was over 1020 nM; with CP466722 it was over 16 µM; with QL-X-138, over 10.2 µM; with CHIR-99021 (setting [1]), over 2.56 µM; in the experiment with CHIR-99021 (setting [2]), over 10 µM. The 50% inhibitory concentration (IC50) was over 20 µM with MPS-1-IN-1; over 10 µM with (5Z)-7-Oxozeaenol; over 512 nM with Thapsigargin; over 5 µM in the experiment with GSK269962A; over 20 µM with Zibotentan; over 5 µM with ABT-888.

As to OVCAR-5 (ovary, adherent), the AUC came to 0.981 with KU-55933; 0.953 in the experiment with ABT-869; 0.841 with CP466722; 0.823 in the experiment with QL-X-138; 0.981 with CHIR-99021 (setting [1]); 0.929 with CHIR-99021 (setting [2]). Also, the AUC with MPS-1-IN-1 was determined as 0.95; in the experiment with (5Z)-7-Oxozeaenol, 0.481; with Thapsigargin it was 0.14; with GSK269962A it was 0.885; in the experiment with Zibotentan it was 0.981; with ABT-888 it was 0.976. Besides, the IC50 with KU-55933 was over 10 µM; in the experiment with ABT-869, over 1020 nM; in the experiment with CP466722, 14.6 µM; with QL-X-138, 7.74 µM; with CHIR-99021 (setting [1]), over 2.56 µM; in the experiment with CHIR-99021 (setting [2]) it was over 10 µM. In addition, the 50% inhibitory concentration (IC50) in the experiment with MPS-1-IN-1 was over 20 µM; with (5Z)-7-Oxozeaenol, 0.549 µM; with Thapsigargin it was under 2 nM; in the experiment with GSK269962A, over 5 µM; in the experiment with Zibotentan, over 20 µM; with ABT-888, over 5 µM.

Values taken from the supplement of paper PMC4967469.
